The supplement of paper PMC3334620
Over roughly 33,000 sequences, “E-score (-0.5 to 0.5)” has its median near -0.013; the highest 2% begin near 0.3. The list shows a part of the results.

Target: T1, Msn1 (UniProt P22148)
T1 sequence: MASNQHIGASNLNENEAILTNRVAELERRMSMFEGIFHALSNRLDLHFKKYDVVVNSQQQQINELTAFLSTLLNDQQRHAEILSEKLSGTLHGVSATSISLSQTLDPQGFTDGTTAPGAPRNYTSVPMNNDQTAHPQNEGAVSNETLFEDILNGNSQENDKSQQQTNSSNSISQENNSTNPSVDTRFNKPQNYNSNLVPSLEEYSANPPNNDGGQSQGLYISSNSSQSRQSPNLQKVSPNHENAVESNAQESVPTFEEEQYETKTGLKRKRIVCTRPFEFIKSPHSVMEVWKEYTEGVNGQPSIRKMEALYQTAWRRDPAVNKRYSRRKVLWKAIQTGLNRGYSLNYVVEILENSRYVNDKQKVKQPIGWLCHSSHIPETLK
Test: PBM E-score (8-mer binding enrichment) (E-score (-0.5 to 0.5)); higher = stronger / more preferred TF binding; most listed sequences are background and not binding sites
Settings: protein concentration: 200 nM; construct: GST-full length
In short: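 Yeast transcription factors, full-length or as DNA-binding domains, were expressed with a GST tag using PURExpress in vitro transcription/translation. At about 100-200 nM they were applied to universal all-10-mer Agilent arrays, double-stranded by primer extension on fresh or once-stripped slides. Fluorescent anti-GST detected bound protein, and masliner normalised the scans. E-scores for ungapped eight-base words, pooled with reverse complements, came from the Universal PBM Analysis Suite.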

Sequence	PBM E-score
AATAGATA	0.211
AATGTTGT	-0.0333
CTCGCGAG	0.112
GTCACGTA	0.053
CTCTCCCC	-0.213
CGTCACGA	0.107
AGGCACTC	-0.119
GCTTTTCA	-0.128
CGGCTACA	-0.136
AGTAAGTA	0.127
ACCCTGTC	-0.134
AATCCGGG	-0.133
CGGTCCCA	-0.185
CCGGCGAA	0.139
ATGGAATG	0.078
ACTGTATC	-0.033
AACGCACC	-0.215
ATACAGTC	-0.0845
GGAAATAA	0.163
AAAAGGGG	-0.213
ATCTTCGC	-0.0539
CGGGTTAA	0.0559
CGCCATCA	-0.106
GGGGTGTA	-0.0223
AGCACCTA	-0.236

Sequence	PBM E-score
CATGACGG	-0.02
TCGTAGAA	-0.085
ATAGGTGC	-0.176
CCCCGGCA	-0.201
AGGCATAG	0.0217
CATTACAG	0.0858
CGAGATAA	0.162
ACACATGA	0.0926
ATAGCGTG	-0.186
ATTGATTC	0.0911
AGGATAGC	-0.167
AAATGGTG	0.017
TCAACTGA	0.117
ACCGTCTG	-0.223
AACAGAAC	0.0585
CACCTTAC	-0.0263
TAGAAGGA	-0.21
AGGCTCTG	-0.0692
TATCCAGA	0.019
CCGGGCCG	-0.199
AACCGGGT	-0.3
ACACAGAA	0.0219
CAGGTCAG	-0.19
GCAGGTCA	-0.125
GGAAACGA	0.015

Sequence	PBM E-score
AAGCAGCC	-0.146
AGAATTAA	0.0398
TCCGCCGA	0.0597
AATGCCAT	0.0497
AACCGGTT	-0.0585
TCATATGA	0.297
ACGCTCTC	-0.196
GTAATTAA	0.144
CTAACGTA	-0.037
GGTATCTA	-0.061
AGAGTGAC	-0.173
CCTAATGA	-0.0327
CTATGTCA	0.167
ACTATTGG	0.0505
CGTTGAGA	0.0512
ACAACTTG	0.103
AGGCTTTC	0.0116
ACACCACA	0.0583
ACCCTTGC	-0.287
GATATAAA	0.101
GATTATGC	-0.221
ACGGCAAC	-0.0165
AAGAACCT	-0.031
CCCGAGCG	0.0341
CTACTAAG	0.0126

Sequence	PBM E-score
GTAGTCTA	0.0245
CGGTACTA	-0.0247
TGCATACA	0.181
ATCCCGAA	0.164
TAAATTGA	0.188
AGAGCATG	-0.101
AATGTTCT	0.098
AGTAAACT	0.008
GCGGACGA	0.161
ACCTGAAG	-0.113
AGCGCGTA	0.0604
AAATAGGT	0.0357
AAGTCATG	0.205
ACACATTC	0.11
CACTGAGA	-0.0419
AAATGAGA	-0.0056
CGGCAGAG	-0.0649
AATCGTTG	0.0294
AGAGGGAA	-0.118
CCGCAACC	-0.182
CCACTGAA	-0.0421
CATTAGCC	-0.0526
AGCCGACC	-0.216
ACGAGATG	0.0352
GCTCTCTA	-0.264

Sequence	PBM E-score
ATGCGATG	-0.0419
GCGTAAAA	0.028
CGTTGAAA	0.059
CTTTTAGC	0.0227
TCACCAAA	0.0099
AACTCTAA	0.141
GGATGATA	-0.0756
CTGGCCAG	-0.179
GCGAGCAA	-0.0674
CTCTAAAC	0.114
AAGCCTGT	0.0168
CGCCGCAC	-0.152
CGACTGTC	0.0367
CGCAAATC	-0.0541
CTGCCACA	-0.0324
AGCACAAG	-0.218
CGCGCCCG	-0.0907
ACGCTCAA	0.021
AGATCCGA	0.214
CGAGAGCA	-0.112
ATTTCCGC	0.0913
AACCGGTC	0.0935
CTTGAAAA	0.117
AATTTCCC	0.137
AGACCGGA	0.0121

Sequence	PBM E-score
ATCCCCTA	-0.217
GTTACCTA	-0.144
CAGGCTAA	-0.0305
CGAAAACA	0.068
GATAGCCA	-0.093
AGGCCCAG	-0.213
CATGCTAC	-0.15
ACCGAGTC	-0.162
ACCGACAG	-0.0494
ACTATATA	0.256
CCCGACCC	-0.138
CTGATAAA	0.242
AGTTGAGA	-0.0677
GCTTGCTA	-0.327
AAGTTTCA	0.0829
CGCACACA	-0.0261
GGCGCCAA	-0.0215
CGTCAGTC	-0.0254
GGCGGCCA	-0.161
TATACTAA	0.0532
ATTTACGC	0.047
ATATTCGG	0.11
ACGTGCCA	-0.109
CCCGCGGG	-0.0169
ATCGTCTG	-0.0622

Sequence	PBM E-score
GGACCGTA	-0.137
AACAACGT	-0.0304
GCACAGCA	0.12
GCACAGAA	-0.0452
CCGGAGTA	0.219
CATACCAA	0.119
CTGCGTTC	-0.0885
AGACGATC	-0.266
ACTGGGAC	0.262
CTTGTTCC	0.0718
CATTGTAG	-0.125
ACGACCTC	0.0406
AGGTATTG	0.121
ATTGTTTA	0.113
GAACACTA	-0.0576
ATATACAT	0.174
CCTCCAGC	-0.299
GAAACTAC	0.0878
AAATTCCT	0.0228
CGTGTCAG	0.213
CAGGCTAG	-0.24
ACGCACGA	0.149
ATAGTTCG	0.199
CTGTGAAA	0.2
GGACGCAA	0.0782

Sequence	PBM E-score
ATAGTAAC	0.11
ATGCGTCC	0.113
ACGTTACT	0.0702
AACACAAA	0.0581
TCAAAGCA	0.0823
CATTGTCG	0.21
ACAGTCAA	-0.0879
GCGAGCTA	-0.107
AGAGTAAA	-0.0814
CACAGGAG	-0.0449
CTCGAACC	-0.0331
CTGTGTGC	-0.157
CGCTACGA	-0.0421
CGTGCCCC	-0.303
TAACAGTA	-0.0091
TGAGATAA	-0.0628
CGCCAAAA	0.00992
ACTTCGAC	0.0429
CATGCTGG	0.0482
ATCCAAGA	0.0622
CTCTGATC	-0.178
GTGGAATA	-0.0199
ACTCCGCG	-0.0578
GACGAGCA	0.00803
ACGACAGA	0.0256

Sequence	PBM E-score
ATGTTGTG	0.167
ACCGGCGC	0.00773
ACCGCCAA	0.0577
AGGAACTG	-0.0153
CATTCTTA	0.122
TCGACCAA	-0.118
GTGGCGTA	-0.189
TATTCCAA	0.0327
CTGTTACC	-0.0157
GCGTAGAC	-0.142
ATGTGGAC	0.276
CTACTTGA	0.0202
ATGGACGA	0.273
GCTCTAGA	-0.0989
CCTTCTTA	-0.14
GGCAGCCA	-0.0768
CACAACCG	0.0261
ATAAGATC	-0.0136
CAGATCCC	-0.219
AGGACCGG	0.0657
GGACCGGA	0.113
CGTGAAGA	0.00643
CTGGACGC	-0.047
GAATATCA	0.119
ACCAAAAC	0.0126

Sequence	PBM E-score
TAACACTA	0.115
ACCGGGAG	-0.249
ATGTCTCC	0.302
AAAGAATG	0.252
AACCTCCT	-0.239
GACCTGGA	-0.0908
AGCCTAAC	-0.198
AGTGGCCC	-0.243
CAATCCGA	0.102
GCCCCACC	-0.249
AGGTCATA	0.0778
ACATAAAT	0.307
CAGTCGAG	-0.122
GGACTAAC	0.175
AGCAACAT	-0.0706
CCGAGCTC	0.111
CCAGTGCA	-0.0783
CCCCGGGA	-0.103
AGAAGATC	-0.15
AAACCACC	0.0789
CCTGCGGC	-0.266
ACTACCCA	0.0938
GGCCCAGA	-0.257
AAGCCGAT	0.00466
ATAATCAC	0.11

Sequence	PBM E-score
TTACAAAA	0.12
CCTCGTCC	-0.0458
ATATGTTC	0.11
GGTATGAC	0.0848
CCTCTGAA	-0.13
CCGTGCTC	-0.148
ATTGTGAG	-0.059
AATAGACG	-0.0584
CCTCGCAG	-0.159
ACGCCAAT	-0.0553
CATGCGAA	-0.0259
CTGTAAAG	0.0053
CCCTCATC	-0.42
CAGTCCGA	0.138
CCTGCCCA	-0.222
CCGTGGAG	-0.258
CAGGCCGG	-0.139
GCCGTACC	-0.159
ACGAAATA	0.0981
TAGATACA	0.0677
AAGGCGTC	-0.0754
GTCGAGGA	-0.046
ACCATGCC	-0.0435
AACCACAG	-0.106
CGCCTGTC	-0.0636

Sequence	PBM E-score
CAGTCAGG	-0.211
CAAGAGAG	-0.0301
GAAATATA	0.255
ATCGTCAG	-0.173
ATCACTGA	0.0304
CTACTGCA	-0.0174
GCAAGAAA	0.0128
ATCGTATC	0.00198
AACTGCCG	-0.0718
CGCAAGAA	0.156
CCGAGACG	0.207
AATACCGG	0.0869
GATGGCAA	-0.0517
GGACGGAC	0.0267
AGTCCTTG	0.278
CGCCGCTA	-0.078
AGTGCCCA	-0.0834
TAAAGCTA	-0.0093
GCAGGGCC	-0.325
AACGGTCA	-0.0795
GCACAGTA	-0.0259
CGACTTTC	0.132
CATGGGAC	0.218
CTCACTAA	-0.145
CTAATATC	0.0983

Sequence	PBM E-score
GCCAGATA	-0.123
CCGTCAGC	-0.145
ACCATCAA	-0.0532
CCTATAGC	-0.0623
ACGTCATA	0.235
CGCTCAGA	-0.138
CCTTCGGA	0.21
AACTGCCA	-0.067
AGCGCATA	0.034
CTTAGGTC	0.0153
ATCCCACG	-0.0996
AGCATACG	-0.203
GGTCAGTA	0.0314
GGATGCCA	-0.144
GGGAATAC	-0.0028
CCACTTGA	-0.0858
ACAGTCTA	0.0479
TAGCACTA	-0.00886
GCTATTAC	0.0567
CGAGGGGA	-0.0585
CGTTAATC	0.0604
ATCCCCCG	-0.325
CTAAACAA	-0.0713
ACCAACCT	-0.0991
CGGGGCTC	-0.214

Sequence	PBM E-score
AGGTAAAT	0.0451
GGTGATAA	-0.12
AAATCCGG	0.168
GGGAAACC	-0.0351
GAACCGAA	0.105
AAGTTGAC	-0.0576
GGAGCAAC	-0.0393
ACAGCGCT	-0.0175
CATCACCC	-0.282
GTGAAAAC	0.0103
AGCGAAGC	-0.217
CAAAAGCA	0.0629
CAGGAAAC	0.142
AACTTACG	0.077
TTAATCAA	0.175
CCGAGACC	-0.0572
GTACTATA	0.233
CTTCATCC	-0.176
AGAATCAT	0.0794
